Results published in PMC4336329 (PLoS ONE, 2015).
The whole screen tested about 310,000 compounds, of which about 2,200 (0.71%) showed an effect of 50% or more. Effects have a minus sign here. Some of the results follow.

target: human ether-à-go-go-related gene (hERG) potassium channel (human, UniProt Q12809); assay: primary screen, population patch clamp on CHO cells stably expressing hERG
Sequence (Q12809 whole entry, looked up): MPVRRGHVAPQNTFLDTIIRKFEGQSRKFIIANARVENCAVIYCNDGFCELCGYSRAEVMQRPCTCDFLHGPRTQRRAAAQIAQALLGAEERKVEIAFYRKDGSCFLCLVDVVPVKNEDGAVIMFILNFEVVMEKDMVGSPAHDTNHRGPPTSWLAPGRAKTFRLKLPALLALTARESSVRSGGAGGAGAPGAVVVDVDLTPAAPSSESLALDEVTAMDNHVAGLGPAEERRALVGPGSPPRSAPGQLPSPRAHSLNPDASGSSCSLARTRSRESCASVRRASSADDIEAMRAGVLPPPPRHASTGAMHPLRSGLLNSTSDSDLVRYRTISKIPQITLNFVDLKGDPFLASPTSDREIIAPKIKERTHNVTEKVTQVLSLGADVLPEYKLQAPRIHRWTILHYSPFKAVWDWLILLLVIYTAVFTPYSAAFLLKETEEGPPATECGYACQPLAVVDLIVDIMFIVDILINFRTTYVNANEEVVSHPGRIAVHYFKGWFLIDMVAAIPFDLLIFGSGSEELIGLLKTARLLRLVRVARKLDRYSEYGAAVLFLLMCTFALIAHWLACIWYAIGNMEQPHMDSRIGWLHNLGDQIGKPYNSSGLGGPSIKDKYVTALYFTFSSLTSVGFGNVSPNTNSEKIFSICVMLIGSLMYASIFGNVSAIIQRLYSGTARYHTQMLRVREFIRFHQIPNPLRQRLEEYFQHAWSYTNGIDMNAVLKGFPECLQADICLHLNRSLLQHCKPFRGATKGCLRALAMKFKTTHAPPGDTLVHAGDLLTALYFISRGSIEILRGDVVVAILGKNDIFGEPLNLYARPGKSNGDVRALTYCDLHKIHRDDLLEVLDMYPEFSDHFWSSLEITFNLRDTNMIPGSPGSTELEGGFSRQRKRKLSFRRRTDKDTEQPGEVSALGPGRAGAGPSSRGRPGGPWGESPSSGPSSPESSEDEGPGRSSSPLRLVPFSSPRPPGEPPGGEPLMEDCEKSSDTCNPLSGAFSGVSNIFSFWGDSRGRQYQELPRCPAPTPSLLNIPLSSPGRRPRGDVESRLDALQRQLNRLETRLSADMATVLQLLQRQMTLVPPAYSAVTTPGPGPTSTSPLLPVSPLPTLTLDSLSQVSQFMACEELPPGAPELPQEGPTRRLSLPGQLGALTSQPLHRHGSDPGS

SMILES | hERG current change (%, negative = inhibition) at 1uM
CCN(CC)CCOC(=O)C12CC3CC(CC(C3)C1)C2 | 2.53%
CCN1C(=O)CC(N2CCC(c3nc4ccccc4[nH]3)CC2)C1=O (centres unmarked) | 2.33%
COC(=O)[C@@]1(Cc2ccc(OC)cc2)[C@H]2c3cc(C(=O)N4CCCC4)n(CCSCCO)c3C[C@H]2CN1C(=O)c1ccccc1 | 4.2%
O=C(CSc1nc(-c2ccccc2F)nc2nc[nH]c12)Nc1c(Cl)cc(Cl)cc1Cl | -2.56%
Cc1ccc2c(c1)N(CCC(=O)NCc1ccco1)C(=O)CO2 | -0.237%
CC(C)(C)NC(=O)c1cnn2c1NC(c1ccc(F)cc1)CC2C(F)(F)F (centres unmarked) | 2.59%
N#C/C(=C/c1ccc(N2CCCCCC2)o1)c1ccc(F)cc1 | 16.2%
CC(NS(=O)(=O)c1ccc(Br)cc1)C(=O)NCc1ccco1 (centres unmarked) | 6.69%
CC(Sc1ccc2ccccc2c1)C(=O)NC(N)=O (centres unmarked) | 10.5%
COC(=O)C(C)N(C#N)c1nc(NC(C)C)nc(SC)n1 (centres unmarked) | 7.39%
Cc1cc(C(F)(F)F)nn1Cc1n[nH]c(=S)n1-c1ccc(Cl)cc1 | 17%
CCc1noc(C)c1C(=O)N1CCCC(CCC(=O)NCc2cccc(OC)c2)C1 (centres unmarked) | 15.5%
O=C(NCc1ccccc1F)c1cccc(S(=O)(=O)N2CCCCCC2)c1 | 8.04%
Cc1ccc(-c2cc(C#N)c(=O)n(Cc3c(Cl)cccc3Cl)c2)cc1 | 8.11%
COc1ccccc1N1CCN(S(=O)(=O)c2cn(C)cn2)CC1 | 16.6%
CC(C)(C)N=C1NN=C(c2cc3ccccc3o2)CS1 | 9.44%
Cc1ccc(-n2nc(C(=O)O)cc2-c2ccccc2Cl)cc1 | 18.9%
O=C(CN1CC(c2ccccc2)CC1=O)OCc1ccccc1F (centres unmarked) | 2.02%
COc1ccc(NC(=O)[C@H](CCS(C)(=O)=O)N2Cc3ccccc3C2=O)c(OC)c1 | 18.2%
CCC(Sc1ccc2nnc(-c3ccc(OC)c(OC)c3)n2n1)C(=O)O (centres unmarked) | -4.86%
COc1ccc(OCc2nnc3n2N=C(c2ccccc2)C(CC(=O)O)S3)cc1 (centres unmarked) | 13.8%
C=CCn1c(CCNC(=O)c2ccc(Cl)c(Cl)c2)nnc1SCCOc1ccc(OC)cc1 | -2.86%
Cc1cccc(N2C(=O)CCC2=O)n1 | -1.13%

SMILES | hERG current change (%, negative = inhibition) at 1uM
O=C(Nc1ccc(S(=O)(=O)N2CCN(Cc3ccccc3)CC2)cc1)c1cnccn1 | 12.7%
Cc1ccc(CN2CCN(Cc3cnc(C)s3)CC2CCO)o1 (centres unmarked) | 6.85%
Cc1ccc(S(=O)(=O)C2(C(=O)NC3CCCCC3)CC2)cc1 | 8.66%
Clc1ccc(-c2cn3c(n2)CCC3)cc1 | 0.47%
CCOC(=O)N1CCN(S(=O)(=O)c2ccc3c(c2)SC(C)C(=O)N3)CC1 (centres unmarked) | 18.7%
COc1ccc(CC(=O)NCc2nnc(SCc3ccc(C)cc3)n2C)cc1 | 10.4%
CCN(CC(=O)NCCc1ccccc1)S(=O)(=O)c1ccc(C)cc1 | -9.05%
CCN(CC)S(=O)(=O)c1ccc(/C=C/C(=O)OCC(=O)N(C)C)cc1 | 11.7%
COCCn1c(SCc2ccc(C(=O)OC)o2)nnc1-c1c[nH]c2ccccc12 | 8.45%
O=[N+]([O-])c1ccc(N2CCN(C(=S)Nc3ccc(F)cc3F)CC2)cc1 | 13.5%
CCCc1[nH]nc2c1C(c1cc(OC)ccc1F)C(C#N)=C(N)O2 (centres unmarked) | 6.14%
CCCNC(=O)C(Cc1ccc(OC)cc1)NC(=O)c1ccc(C#N)cc1 (centres unmarked) | -21.9%
Cc1ccc(NC(=O)N2CCCC2C(=O)Nc2ccc3c(c2)OCCO3)cc1 (centres unmarked) | 14.2%
O=C(COC(=O)c1ccc(Cl)c(S(=O)(=O)N2CCCCC2)c1)NCc1ccco1 | -0.846%
CC(C)c1ccc(C(=O)NNC(=O)c2n[nH]c(=O)c3ccccc23)cc1 | 9.08%
Cc1ccc(-c2csc3nc(CN(C)Cc4ccccc4)[nH]c(=O)c23)cc1 | 20.1%
O=C(NCc1ccco1)c1cc2ccccc2o1 | 8.9%
CCn1c(SCC(=O)Nc2nc(C)cs2)nnc1-c1ccoc1C | 10.4%
Cc1ccn2c(NC3CCCC3)c(-c3ccncc3)nc2c1 | 4.53%
Cc1ccc(NC(=O)CNC(=O)c2ccc(C)s2)nc1 | 3.54%
Cc1ccc(Oc2ncnc3sccc23)cc1 | 8.91%
CCOC(=O)CSc1ncnc2c1cnn2-c1ccc(C)cc1C | 9.71%
CCOC(=O)C1(CCCc2ccccc2)CCN(C(=O)c2cc(C)nc(C)n2)CC1 | 3.56%

SMILES | hERG current change (%, negative = inhibition) at 1uM
CN(C)S(=O)(=O)c1ccc(C(=O)OCCc2ccccc2)cc1 | 12.1%
CCCCNC(=O)c1onc(CSc2ccccc2)c1C(=O)NCCCC | -4.07%
O=C(NC(=S)NC1CCCc2ccccc21)c1ccco1 (centres unmarked) | 4.45%
N#CC1=C(SCc2ccccc2Cl)NC(=O)C(C(N)=O)C1 (centres unmarked) | 11.3%
CN(C)c1ccc(S(=O)(=O)N2CCCCC2)cc1NC(=O)CN1C(=O)NC(C)(c2ccccc2)C1=O (centres unmarked) | 18.2%
COC(C/C=C/[C@H](O)[C@@H](C)OCc1ccccc1)OC | 13.6%
CC(=O)Nc1ccc(-c2csc(NC(=O)C3CSC4(C)CCC(=O)N34)n2)cc1 (centres unmarked) | 11.9%
O=C(Cc1ccc(Cl)c(Cl)c1)Nc1ccc(S(=O)(=O)Nc2ncccn2)cc1 | 13.3%
CC(C)n1ncc2c(C(=O)N3CCN(Cc4ccc(Br)s4)CC3)cc(C3CC3)nc21 | 3.17%
COc1ccccc1NC(=S)NC(=O)c1ccc(Cn2cc(Br)cn2)cc1 | 1.66%
O=c1[nH]c(CN2CCc3ccccc3C2)nc2ccccc12 | 6.21%
Cc1ccccc1N=C1NC(=O)/C(=C/c2cccn2C)S1 | 11.9%
Cc1ccc(C(=O)n2c(-c3ccccc3)cnc2SCC(=O)Nc2ccccc2)cc1 | 12.8%
Clc1cccc(N2CCN(Cc3nnc(-c4ccccc4)o3)CC2)c1 | 6.03%
O=C(Nc1cccc(-c2cccc(Cl)c2)c1)C1CCN(Cc2ccc(CO)o2)CC1 | -11.2%
CC1(C)Cc2c(c(N3CCOCC3)nc3sc(C(=O)Nc4ccc(Cl)cc4)c(N)c23)CO1 | 12.8%
O=C(Cc1nc2ccccc2[nH]c1=O)c1ccc(Cl)cc1 | 11.1%
CCn1c(N)c(Br)c(=O)[nH]c1=O | 9.81%
COc1cc(OC)c(OC)cc1CN1CCCC(C(=O)c2ccc3c(c2)OCO3)C1 (centres unmarked) | -27.7%
CSc1cccc(CN2CCC(Oc3ccc(C(=O)N4CCCCC4)cc3)CC2)c1 | -2.43%
COc1cccc(COc2cc3ccccc3nc2C)c1 | 13.3%
Cc1cc(NC(=O)CCN2CCC(C(N)=O)CC2)ccc1Br | 4.3%
CC/C(=N\NC(=O)c1ccc(-c2ccccc2)cc1)C12CC3CC(CC(C3)C1)C2 | 5.79%

SMILES | hERG current change (%, negative = inhibition) at 1uM
O=C(NCCc1ccccc1)c1ccc2c(c1)S(=O)(=O)c1ccccc1C2=O | 2.35%
O=C(CSc1nc2ccccc2[nH]1)Nc1cccc(S(=O)(=O)N2CCOCC2)c1 | -0.172%
COc1ccc(CCNC(=O)c2ccc3ccccc3n2)cc1 | 14%
CCO[C@H]1OC(C(=O)N2CCN(Cc3ccc4c(c3)OCO4)CC2)=C[C@@H](C2CC2)[C@@H]1CCCO | 6.84%
COC(=O)c1c(-c2ccc(OC)cc2)sc2ccccc12 | 5.17%
FC(F)(F)c1ccc(N/N=C/c2cccnc2)nc1 | 9.78%
COc1ccccc1/C=N/NC(=O)c1ccc(NC(=O)c2cccc([N+](=O)[O-])c2)cc1 | 13.4%
O=C(Cc1cccs1)Nc1nc(-c2ccc(F)cc2F)cs1 | 4.96%
CN(C)c1ccc(C=C2C(=O)NC(=O)NC2=O)cc1[N+](=O)[O-] | 18.5%
Cc1cc(=O)oc2c3c(cc(OCC(=O)NCCN4CCOCC4)c12)OC(C)(C)CC3 | 12.8%
COc1ccccc1CNc1nc(SC)ncc1CO | -2.02%
CC(=O)N(Cc1ccc(Br)cc1)c1ccccc1C(=O)O | 6.95%
Cc1ccc(S(=O)(=O)N(C)CC(=O)NC2CCCC2)cc1 | 2.2%
CCCCNCC(=O)Nc1ccc(NC(=O)CNCCCC)cc1 | 16.2%
O=C1C2C3C=CC([C@@H]2C(=O)N1Cc1cccnc1)C31CC1 (some centres unmarked) | 9.48%
CCc1ccc(-n2c(C)cc(/C=N/NC(=O)c3ccncc3)c2C)cc1 | 6.87%
Cc1ccc(S(=O)(=O)N2CCCN(C(=O)OC(C)(C)C)CC2)cc1 | 14.8%
CC(O)CNc1ccc([N+](=O)[O-])c2cccnc12 (centres unmarked) | 4.21%
CCCCc1nnc(NC(=O)CCN2C(=O)C3CC=CCC3C2=O)s1 (centres unmarked) | 11.3%
O=C1COc2ccc(C(=O)COC(=O)c3c(F)cccc3Cl)cc2N1 | 1.5%
